Data published in PubChem BioAssay AID504845 (National Center for Advancing Translational Sciences (NCATS), 2011).
About 150 (0.038%) of roughly 390,000 compounds were called active. Inconclusive results, whose numbers are uncertain, are shown with a selection of clear calls. Calls follow the shape of the dose curve; as a rule, active = well fitted inhibition curve with a large enough effect; inconclusive = small, poorly fitted or top-dose-only effect; inactive = no such curve, though single readings can be large or run the other way. A potency beside an inconclusive call is a rough fit, not a confirmed value.

The compounds below were run against Regulator of G-protein signaling 4 (Homo sapiens) (UniProt P49798) (assay: Inhibitors of Regulator of G Protein Signaling (RGS) 4: qHTS). Settings: Transcreener GDP fluorescence polarization, RGS4-accelerated GTP hydrolysis; series mostly up to 114 µM; activity change, negative = inhibition: at the top concentration.
Sequence of UniProt P49798 (P49798 whole entry, looked up): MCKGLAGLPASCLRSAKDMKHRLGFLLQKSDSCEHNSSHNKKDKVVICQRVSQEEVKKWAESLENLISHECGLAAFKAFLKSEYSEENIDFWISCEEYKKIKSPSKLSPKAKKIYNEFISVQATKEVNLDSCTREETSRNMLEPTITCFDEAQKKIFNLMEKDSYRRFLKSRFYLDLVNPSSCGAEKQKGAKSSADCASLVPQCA
How it was run: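 MLSMR compounds (23 nl, pin-transferred) preincubated 10 min at room temperature with a 500nM (2x) first reagent, then RGS4 at 900nM (2x) plus Transcreener GDP mix added; fluorescence polarization (620/688 nm) read before and after 90 min at 30 °C.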
% is scaled to controls: 0 for no effect and ±100 for the full control effect; potency is read from the fitted curve at half-maximal effect; tags tell the direction and shape of the fitted curve.
Also: nearly all actives have a fitted effect of over 75% in size.

SMILES | Potency | activity change, negative = inhibition
COc1ccc(CCCc2nnc(SCc3nc4ccccc4c(=O)[nH]3)n2C)cc1 | inconclusive: 28.2 µM [inhibitor, full curve, poor fit] | –
N#Cc1c(N)nc2c3c(sc(=N)c2c1N)NC(=O)CC3c1c(F)cccc1Cl (configuration not stated) | inconclusive: 89.1 µM [inhibitor, single point] | –
Cc1cccc(CS(=O)(=O)c2ncc(Cl)c(C(=O)Nc3nnc(C(C)C)s3)n2)c1 | inconclusive: 50.1 µM [inhibitor, partial curve, poor fit] | –
CCOc1cc(/C=C(/C#N)c2ccc(F)cc2)ccc1OCc1ccc(C(=O)O)o1 | inconclusive: 89.1 µM [inhibitor, single point] | –
CNC(=S)N/N=C/c1cc(Br)cc(Br)c1O | – | inactive: -47.5%
O=C(Nc1nc(-c2ccc3c(c2)OCCO3)cs1)C1CC(=O)N(c2ccc3c(c2)OCCO3)C1 (configuration not stated) | – | inactive: 30%
COc1ccc(OCC(=O)NC(=S)NNC(=O)COc2ccc(Br)cc2Cl)cc1 | inconclusive: 35.5 µM [inhibitor, partial curve, poor fit] | –
CC(=O)c1[nH]c(C)c(C(=O)N2CCCC(Nc3ccc(C(C)C)cc3)C2)c1C (configuration not stated) | inconclusive: 79.4 µM [inhibitor, single point] | –
CC(NCc1ccc(F)cc1)C(=O)NC1CCCCC1 (configuration not stated) | inconclusive: 79.4 µM [inhibitor, partial curve, poor fit] | –
CC(C)C(NC(=O)OCc1ccccc1)C(=O)OCC(=O)NC1CC1 (configuration not stated) | inconclusive: 44.7 µM [inhibitor, partial curve, poor fit] | –
C#CCOCCOCCOCCNc1nc(N2CCN(C(=O)CCCCCCCCCCNC(=O)[C@@H](CCSC)n3cc(CCO)nn3)CC2)nc(N2CCN(C(=O)CCCCCCCCCCNC(=O)[C@H](CCCN=C(N)N)n3cc(C[C@@H](C)CC)nn3)CC2)n1 | inconclusive: 20 µM [inhibitor, full curve, poor fit] | –
CC(=O)c1c(C)[nH]c(C(=O)CSc2nnc(NC3CC3)s2)c1C | inconclusive: 89.1 µM [inhibitor, single point] | –
Cc1oc(-c2ccccc2F)nc1CS(=O)CC(=O)NC1CCCC1 (configuration not stated) | – | inactive: 29.2% [at 11.4 µM]
CCOC(=O)c1c(O)c2c(n(Cc3ccco3)c1=O)CCCC2 | – | inactive: 7.37%
Clc1nssc1=Nc1ccccc1 | inconclusive: 17.8 µM [inhibitor, full curve, poor fit] | –
COc1ccc(NC(=O)c2ccc(NC(=O)N3CCSc4ncccc43)cc2)cc1 | inconclusive: 100 µM [inhibitor, single point] | –
CC(=O)c1cccc(NC(=S)NC(=O)c2ccccc2)c1 | inconclusive: 44.7 µM [inhibitor, partial curve, poor fit] | –
Cc1ccc(-c2c(C(=O)Nc3ccccc3C)c(C)[nH]c(=S)c2C#N)o1 | inconclusive: 50.1 µM [inhibitor, partial curve, poor fit] | –
Cc1ccc(-c2ccc(CCC(=O)O)n2-c2ccc(O)cc2)cc1 | inconclusive: 50.1 µM [inhibitor, partial curve, poor fit] | –
NCCCCCC(=O)O | inconclusive: 0.422 µM [inhibitor, full curve, poor fit] | –
O=C1/C(=N\S(=O)(=O)c2cccs2)C([n+]2ccc(CCCc3ccccc3)cc2)=C([O-])c2ccccc21 | – | inactive: 11%

SMILES | Potency | activity change, negative = inhibition
O=C(CN1CCN(S(=O)(=O)c2ccc(Br)s2)CC1)NC1CCCCC1 | inconclusive: 100 µM [inhibitor, single point] | –
O=[N+]([O-])c1ccccc1OCc1nc(-c2cccs2)no1 | – | inactive: 12.4%
O=C(CCCN1C(=O)/C(=C/c2ccccc2Cl)SC1=S)N1CCCC1 | – | inactive: -38.5%
CC1CCC/C(=C\Nc2ccc3c(c2)OCO3)C1=O (configuration not stated) | inconclusive: 50.1 µM [inhibitor, partial curve, poor fit] | –
O=C(/C=C/c1ccco1)NC(=S)Nc1ccc(N2CCCC2)cc1 | inconclusive: 39.8 µM [inhibitor, full curve, poor fit] | –
c1ccc(Nc2cccc(Nc3ccccc3)n2)cc1 | inconclusive: 79.4 µM [inhibitor, partial curve, poor fit] | –
CC(C)CN1C=C2C(=O)C(C)(OC(=O)C3CCCC3)C(=O)C=C2C=C1c1ccsc1 (configuration not stated) | – | inactive: -13.6%
Cc1cc(C)c(C)c(OCCCCN(C)Cc2ccccc2)c1 | – | inactive: -1.87%
Fc1ccccc1N1CC(c2ccccc2)C(c2cccs2)=N1 (configuration not stated) | – | inactive: 0.469%
Cc1sc(NC(=O)CCS(=O)(=O)c2ccccc2)c(C#N)c1C | inconclusive: 50.1 µM [inhibitor, partial curve, poor fit] | –
Cc1ccccc1Nc1nn2c(=O)c3ccc(C(=O)NCc4ccccc4)cc3nc2s1 | inconclusive: 79.4 µM [inhibitor, partial curve, poor fit] | –
CSC1=NC(C)(C)C=C(/C=C/c2ccc(Cl)cc2)N1 | inconclusive: 25.1 µM [inhibitor, full curve, poor fit] | –
Cc1ccc(NC(=O)COC(=O)/C=C/c2ccc(Br)o2)cc1S(=O)(=O)N(C)C | inconclusive: 28.2 µM [inhibitor, full curve, poor fit] | –
O=C(NC(=S)Nc1nc(-c2ccc(Cl)cc2)cs1)c1cccs1 | inconclusive: 31.6 µM [inhibitor, full curve, poor fit] | –
O=C(O)Cn1nc(-c2ccc(F)cc2)oc1=O | inconclusive: 79.4 µM [inhibitor, partial curve, poor fit] | –
Cn1cc(CN(CCCN2CCOCC2)C(=S)Nc2cccc(Cl)c2)c2ccccc21 | – | inactive: 24.5%
Nc1nc2c(s1)CCc1c-2cnn1-c1ccccc1 | inconclusive: 20 µM [inhibitor, full curve, poor fit] | –
O=[N+]([O-])c1ccc(NNC(=S)Nc2ccccc2)cc1 | inconclusive: 56.2 µM [inhibitor, partial curve, poor fit] | –
COc1cc2nc(NC(=O)c3ccccc3)[nH]c(=O)c2cc1OC | inconclusive: 50.1 µM [inhibitor, partial curve, poor fit] | –
CCCC1=Nc2cc(C(=O)NCc3ccco3)ccc2Sc2ccccc21 | inconclusive: 56.2 µM [inhibitor, partial curve, poor fit] | –
O=C(O)CCSc1ccccn1 | inconclusive: 79.4 µM [inhibitor, single point] | –

SMILES | Potency | activity change, negative = inhibition
CCOC(=O)c1nnn(CC(=O)N2N=C(c3cccc4ccccc34)CC2c2ccccc2)c1C(=O)OCC (configuration not stated) | – | inactive: -41.2%
CCn1cc2nc(SCC(=O)Nc3ccc(C)cc3)n(Cc3ccc(C)cc3)c(=O)c2n1 | inconclusive: 20 µM [inhibitor, full curve, poor fit] | –
COc1ccc2c(c1)CC/C(=C\c1ccc(OC)c(Cn3cccn3)c1)C2=O | – | inactive: -2.47%
Cc1ccc(C(=O)Nc2cccc(-c3ccc(N4CCOCC4)nn3)c2)cc1[N+](=O)[O-] | inconclusive: 50.1 µM [inhibitor, partial curve, poor fit] | –
COc1ccc(-c2nnc(SCC(=O)Nc3ccc(C)c(C)c3)s2)cc1 | – | inactive: -23.5%
COCCCNC(=O)c1ccc2c3c(onc13)-c1ccccc1C2=O | inconclusive: 10 µM [inhibitor, full curve, poor fit] | –
O=C(O[C@@H]1OC2COC(=O)c3cc(O)c(O)c(O)c3-c3c(cc(O)c(O)c3O)C(=O)O[C@@H]([C@H]1O)[C@@H]2O)c1cc(O)c(O)c(O)c1 | inconclusive: 39.8 µM [inhibitor, partial curve, poor fit] | –
COc1cccc(/C=N/NC(N)=S)c1OCc1cccc(Cl)c1 | inconclusive: 44.7 µM [inhibitor, partial curve, poor fit] | –
CC(=O)c1nnn(-c2ccc([N+](=O)[O-])cc2C)c1C | inconclusive: 35.5 µM [inhibitor, full curve, poor fit] | –
CC(=O)N1CCN(S(=O)(=O)c2cccc(C(=O)OCC(=O)N3CC(=O)Nc4ccccc43)c2)CC1 | inconclusive: 70.8 µM [inhibitor, single point] | –
S=c1[nH]nc(-c2cc(-c3ccccc3)n[nH]2)n1/N=C/C(Br)=C/c1ccccc1 | – | inactive: -25.7%
CN(C(=S)NC(=O)Cc1ccccc1)c1ccccc1 | inconclusive: 50.1 µM [inhibitor, partial curve, poor fit] | –
COc1ccc(C(=O)COC(=O)CN2CC(=O)Oc3ccccc32)cc1Br | inconclusive: 70.8 µM [inhibitor, partial curve, poor fit] | –
CCN(CC)CCCNC(=O)c1cn(C)c(=O)c2c1c1ccccc1n2C | inconclusive: 89.1 µM [inhibitor, single point] | –
CN1CCN(CCc2ccc(Cl)c(Cl)c2)CC1 | inconclusive: 8.44 µM [inhibitor, partial curve, poor fit] | –
O=C(c1cnc(N2CCN(c3ncccn3)CC2)c2ccccc12)N1CCN(c2ccccn2)CC1 | – | inactive: -13.5%
CN(CC(=O)Nc1ccccc1Cl)CC(=O)N1CCc2ccccc21 | inconclusive: 89.1 µM [inhibitor, single point] | –
CCOC(=O)C1CCN(C(c2ccccn2)c2c(C)[nH]c3ccccc23)CC1 (configuration not stated) | inconclusive: 79.4 µM [inhibitor, partial curve, poor fit] | –
CCOC(=O)c1cc([N+](=O)[O-])c([N+](=O)[O-])cc1NC(C)=O | inconclusive: 89.1 µM [inhibitor, single point] | –
Cc1cc(C)nc(Sc2nc(Cl)nc(N(c3ccccc3)c3ccccc3)n2)n1 | inconclusive: 44.7 µM [inhibitor, partial curve, poor fit] | –
